Test results as given in PubChem BioAssay AID894 (National Center for Advancing Translational Sciences (NCATS), 2007).
Screen size: about 150,000 compounds; about 6,500 (4.3%) were called active. Inconclusive results, whose numbers are uncertain, are shown with a selection of clear calls. The call rests on the fitted dose curve; in most records, active means well fitted inhibition curve with a large enough effect (not every such curve was filed as active); inconclusive means small, poorly fitted or top-dose-only effect, or another doubt; inactive means no such curve, though single readings can be large or run the other way. A potency beside an inconclusive call is a rough fit, not a confirmed value.

target: 15-hydroxyprostaglandin dehydrogenase [NAD(+)] (Homo sapiens) (UniProt P15428); assay: qHTS Assay for Inhibitors of HPGD (15-Hydroxyprostaglandin Dehydrogenase); conditions: purified HPGD, NADH fluorescence kinetic, PGE2 substrate; activity change, negative = inhibition: stronger effect = lower value
How it was run: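 NADH formation kinetics: reaction with 30 uM PGE2 and 1 mM NAD+ (final), 20 nM enzyme, Tris-HCl pH 8 with Tween 20, after 15 min compound preincubation at room temperature. Fluorescence change, last versus first of five reads.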
On the % scale 0 is the no-effect control and ±100 the full control effect; potency means the concentration at half of the fitted maximal effect; tags describe the fitted curve by direction and shape.

UniProt P15428, sequence (P15428 whole entry, looked up): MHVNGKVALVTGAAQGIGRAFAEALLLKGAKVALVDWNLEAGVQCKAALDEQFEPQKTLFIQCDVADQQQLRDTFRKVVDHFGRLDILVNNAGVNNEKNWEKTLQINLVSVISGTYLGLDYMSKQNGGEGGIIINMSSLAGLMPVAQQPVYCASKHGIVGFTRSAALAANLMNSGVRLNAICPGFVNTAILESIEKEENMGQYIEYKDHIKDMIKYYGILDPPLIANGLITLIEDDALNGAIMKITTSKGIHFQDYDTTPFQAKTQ

Potency, inconclusive:
COc1ccc(-c2cc(C(F)(F)F)nc(SCC(=O)Nc3ccc4c(c3)OCO4)n2)cc1OC 28.2 µM [inhibitor, single point], COc1ccc(C2C=C(c3cccs3)Nc3nc(CCCO)nn32)cc1 (configuration not stated) 31.6 µM [inhibitor, partial curve], COc1ccc(S(=O)(=O)N2CCN(c3ncnc4c(-c5ccccc5)nsc34)CC2)cc1 28.2 µM [inhibitor, partial curve], O=C(CS(=O)c1ccc(C(F)(F)F)cc1[N+](=O)[O-])Oc1ccccc1 (configuration not stated) 25.1 µM [inhibitor, partial curve, poor fit], COc1ccccc1N1C(=O)c2ccccc2NC1C(OC)OC (configuration not stated) 31.6 µM [inhibitor, partial curve], CCN(CC)S(=O)(=O)c1ccc(C)c(NC(=O)COc2ccc3c(C)cc(=O)oc3c2)c1 22.4 µM [inhibitor, partial curve, poor fit], OCCCNC(=S)Nc1ccc(Oc2ccccc2)cc1 28.2 µM [inhibitor, single point], COc1ccc(C(=O)/C=C/Nc2cccc(C)n2)cc1OC 31.6 µM [inhibitor, partial curve], Cc1cc(NCCOCCO)n2ncc(-c3ccc(Cl)cc3)c2n1 12.6 µM [inhibitor, partial curve], COc1ccc2nc(Nc3nc4cc5c(cc4s3)OCCO5)sc2c1 15.8 µM [inhibitor, partial curve], Clc1ccccc1N/N=C/c1ccc2c(c1)OCO2 31.6 µM [inhibitor, single point], Oc1ccc(/C=N/NC2=NCCCCC2)c(O)c1 22.4 µM [inhibitor, partial curve], CC(C)C(C)NC(=O)COc1ccc(Sc2ccc(OCC(=O)NC(C)C(C)C)cc2)cc1 (configuration not stated) 31.6 µM [inhibitor, partial curve], Cc1csc(NC(=O)CCc2c(C)nc3cc(-c4ccc(Cl)cc4)nn3c2C)n1 14.1 µM [inhibitor, partial curve], CCN(CC)C(=O)CSc1nc2cc3c(cc2c(=O)n1Cc1ccc2c(c1)OCO2)OCO3 20 µM [inhibitor, partial curve, poor fit], CCOC(=O)C(CSCC(=O)c1ccc(Cl)cc1Cl)NC(=O)OC(C)(C)C (configuration not stated) 25.1 µM [inhibitor, partial curve], CCN(CC)c1ccc(/C=N/NC(=O)c2c[nH]c3ccccc23)cc1 28.2 µM [inhibitor, partial curve], Cc1cc(C)c(C#N)c(N2CCSCC2)n1 25.1 µM [inhibitor, partial curve], CCc1ccc(-c2csc(-c3c[nH]c4ccccc34)n2)cc1 15.8 µM [inhibitor, partial curve], CCOC(=O)c1cc2c(=O)n3ccccc3nc2n(CCCOC)c1=NC(C)=O 1.26 µM [inhibitor, full curve], COC(=O)c1c(-c2ccccc2)csc1NC(=O)c1ccco1 25.1 µM [inhibitor, partial curve], O=C(Nc1ccccc1-c1nc2ccccc2s1)c1cccnc1Cl 31.6 µM [inhibitor, partial curve], Cc1cc(NCCCn2ccnc2)n2ncc(-c3ccc(Cl)cc3)c2n1 25.1 µM [inhibitor, partial curve], COC(=O)c1ccccc1NC(=O)c1ccc(COc2ccc(C)c(C)c2)o1 31.6 µM [inhibitor, single point], O=c1[nH]c2cc3c(cc2cc1CN(Cc1ccccc1)Cc1nnnn1Cc1ccco1)OCCO3 31.6 µM [inhibitor, partial curve], COC(=O)c1[nH]c2ccccc2c1NC(=O)CN1CCN(c2cccc(Cl)c2)CC1 25.1 µM [inhibitor, partial curve], O=C(COC(=O)CCCN1C(=O)c2cccc3cccc(c23)C1=O)Nc1ccc(Cl)cc1 31.6 µM [inhibitor, partial curve], CCOc1ccc(C(=O)CCN2CCCCC2)cc1 35.5 µM [inhibitor, partial curve], CCN1CCc2c(sc(N)c2C(N)=O)C1 35.5 µM [inhibitor, single point], COc1ccc(OC)c(C2NC(=O)c3sc(=S)n(-c4ccccc4)c3N2)c1 (configuration not stated) 22.4 µM [inhibitor, partial curve], O=C1/C(=C/c2ccccc2)N=C(N2CCOCC2)N1c1cccc(Cl)c1 17.8 µM [inhibitor, partial curve], Cc1cc(=O)oc2n[nH]c(-c3ccccc3)c12 28.2 µM [inhibitor, single point], C[C@H](Cc1ccccc1)Nc1ncnc2c1ncn2[C@@H]1O[C@H](CO)[C@H](O)[C@H]1O 15.8 µM [inhibitor, partial curve], COc1ccc(C(=O)/C=C/Nc2cc(C)on2)cc1 15.8 µM [inhibitor, partial curve], N#Cc1c(N)n(CCCN2CCOCC2)c2nc3ccccc3nc12 28.2 µM [inhibitor, partial curve], COc1ccc(N(C(=O)c2ccco2)S(=O)(=O)c2ccccc2)cc1 25.1 µM [inhibitor, partial curve], Cc1occc1-c1nnc(SCC(=O)c2ccc(F)cc2)n1Cc1ccco1 15.8 µM [inhibitor, partial curve], COc1ccc(/C=C\C(=O)NCc2ccc3[nH]c(C)cc3c2)cc1OC 15.8 µM [inhibitor, partial curve], COC(=O)CC(=O)CSc1nc2c(cc1C#N)CCC2 25.1 µM [inhibitor, partial curve]

Potency, active:
COc1ccccc1OCc1ccc(C(=O)N2CCN3CCCC3C2)cc1 (configuration not stated) 20 µM, CCc1ccc2nc3n[nH]c(N)c3cc2c1 28.2 µM, CCOC(=O)c1c(NC(=O)C(Sc2ccccc2)c2ccccc2)sc(C(N)=O)c1C (configuration not stated) 28.2 µM, O=C(Nc1cccs1)NC1CCCC1 31.6 µM, CCOCCOC(=O)COc1ccc2c(-c3ccccc3)cc(=O)oc2c1 25.1 µM, COC(=O)Oc1nsnc1N1CCOCC1 14.1 µM, CCCn1cc(SCC(=O)NCc2ccco2)c2ccccc21 17.8 µM, O=C(NCC1CCCO1)c1ccc(N2CCCCC2)nc1 (configuration not stated) 14.1 µM, Cc1nn(Cc2ccccc2)c(C)c1NC(=O)CSc1nnc(-c2cc(Cl)ccc2O)n1C 28.2 µM, S=C1NCCc2ccccc2C1c1ccccc1 (configuration not stated) 39.8 µM, O=[N+]([O-])c1ccccc1/C=N/n1c(C2CCCCC2)n[nH]c1=S 15.8 µM, Nc1nc(-c2ccc3c(c2)NC(=O)CO3)cs1 17.8 µM, O=S(=O)(Nc1cc(Sc2cccc3cccnc23)c(O)c2ccccc12)c1ccccc1 1.12 µM, O=C(c1cccc(F)c1F)N1CCCC1 28.2 µM

Activity change, negative = inhibition, inactive:
COc1cccc(C(=O)Nn2c(C)nnc2-n2nc(C)cc2C)c1 -8.79%, S=C(Nc1ccc(Cl)c(Cl)c1)NC1CCN(Cc2ccccc2)CC1 -17.2%, Clc1ccc(-c2csc3ncnc(N4CCc5ccccc5C4)c23)cc1 -19.1%, CC(C)[C@H](CO)Nc1nc(Nc2cccc(Cl)c2)c2ncn(C(C)C)c2n1 -19.4%, COCCCNC(=O)c1ccc2c(=O)n(CC3CCCO3)c(=S)[nH]c2c1 (configuration not stated) -15.8%, Cc1ccc(S(=O)(=O)CC2CSc3nc(N)cc(=O)n32)cc1 (configuration not stated) -14.9%, CCCCC[C@H](O)/C=C/C=C\C/C=C\C/C=C\CCCC(=O)O -1.9%, CCOC(=O)c1c(C)oc2c1c(C=NCC1CCCO1)c(O)c1ccccc12 (configuration not stated) -6.98%, Cc1cc(CSc2ccccc2)ccc1NC(=O)c1ccc(CN2CCOCC2)cc1 -5.86%, CCOC(=O)CSc1cc(=O)n(C)c2cc(Cl)ccc12 -17.9%, Cc1oc(-c2ccccc2)cc1C(=O)Nc1ccc(N(C)C)cc1 -7.45%, COc1ccc(C2=CC(=O)OC3(CCCC3)O2)cc1 -5.22%, COC(=O)c1cccc(C23CC4(C2)[C@H](CN(Cc2ccc(-c5ccccc5)cc2)[C@@H]4c2ccccc2)C3c2ccc(C(F)(F)F)cc2)c1 (some centres not stated) -8.15%, COC(=O)[C@@]1(Cc2ccccc2)[C@H]2c3cc(C(=O)N4CCCC4)n(Cc4ccc(C(F)(F)F)nc4)c3C[C@H]2CN1C(=O)c1ccccc1 -10.1%, CN(C)Cc1nc2c(c(=O)[nH]1)C1(CCCCC1)Cc1ccccc1-2 -16.5%, CC(=O)Nc1ccc(S(=O)(=O)N2C3CCCC2CC(NC(=O)C2CCCCC2)C3)cc1 (configuration not stated) -3.79%, Cc1ccc2c(c1)nnn2C1CCN(C(=O)C23CC4CC(CC(C4)C2)C3)CC1 4.56%, CN(N)c1nc(-c2ccccc2)nnc1C(F)(F)F -2.9%, COc1ccc(/C=C2/SC(=O)N(CC(=O)Nc3cc(C)on3)C2=O)cc1OC -25%
